In PMC4336329 (PLoS ONE, 2015):
Hit rate of the full screen: of about 310,000 compounds, about 2,200 (0.71%) showed an effect of 50% or more. Effects have a minus sign here. The list shows a part of the results.

target: human ether-à-go-go-related gene (hERG) potassium channel (human, UniProt Q12809); assay: primary screen, population patch clamp on CHO cells stably expressing hERG
Sequence (Q12809 whole entry, looked up): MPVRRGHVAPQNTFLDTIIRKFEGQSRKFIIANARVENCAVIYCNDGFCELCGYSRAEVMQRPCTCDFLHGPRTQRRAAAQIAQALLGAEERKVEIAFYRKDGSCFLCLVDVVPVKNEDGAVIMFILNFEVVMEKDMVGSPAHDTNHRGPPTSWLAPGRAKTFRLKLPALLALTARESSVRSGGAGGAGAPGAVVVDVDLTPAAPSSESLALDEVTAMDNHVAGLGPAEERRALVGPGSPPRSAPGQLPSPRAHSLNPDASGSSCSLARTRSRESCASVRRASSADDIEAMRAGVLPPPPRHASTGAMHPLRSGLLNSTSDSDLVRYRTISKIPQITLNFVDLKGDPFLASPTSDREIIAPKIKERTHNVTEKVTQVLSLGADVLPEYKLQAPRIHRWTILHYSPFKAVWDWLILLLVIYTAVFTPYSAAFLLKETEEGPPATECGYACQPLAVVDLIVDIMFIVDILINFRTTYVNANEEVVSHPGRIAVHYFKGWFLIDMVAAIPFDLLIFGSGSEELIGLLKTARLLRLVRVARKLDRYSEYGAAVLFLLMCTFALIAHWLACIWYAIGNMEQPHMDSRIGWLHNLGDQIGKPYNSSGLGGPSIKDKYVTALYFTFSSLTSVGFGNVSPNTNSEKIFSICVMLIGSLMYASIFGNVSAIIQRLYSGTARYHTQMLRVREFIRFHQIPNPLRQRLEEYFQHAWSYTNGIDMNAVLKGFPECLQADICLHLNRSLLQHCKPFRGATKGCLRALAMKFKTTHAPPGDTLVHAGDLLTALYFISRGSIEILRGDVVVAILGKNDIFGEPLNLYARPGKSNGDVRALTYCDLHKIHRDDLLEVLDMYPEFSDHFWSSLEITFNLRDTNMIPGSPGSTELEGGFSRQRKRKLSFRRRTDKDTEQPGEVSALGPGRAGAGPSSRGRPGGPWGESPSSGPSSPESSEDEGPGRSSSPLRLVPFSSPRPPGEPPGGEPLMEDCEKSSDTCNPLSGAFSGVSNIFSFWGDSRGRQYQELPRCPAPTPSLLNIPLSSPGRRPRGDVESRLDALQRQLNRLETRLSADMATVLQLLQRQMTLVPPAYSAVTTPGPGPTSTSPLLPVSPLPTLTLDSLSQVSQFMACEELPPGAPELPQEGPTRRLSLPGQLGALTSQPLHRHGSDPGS

SMILES | hERG current change (%, negative = inhibition) at 1uM
C=C(C(=O)c1ccccc1)C(C(=C)C(=O)c1ccccc1)c1ccc(OC)cc1 | 7.52%
Cc1cc(=O)oc2cc(OCc3ccc(C(=O)OCC(=O)Nc4ccccc4OC(F)F)cc3)ccc12 | 5.85%
O=S(=O)(NCCc1csc(-c2cccnc2)n1)c1ccc(F)cc1 | 11%
CCOC(=O)C1CCCN(Cc2c(C(=O)N3CCCCC3)nc3c(C)cccn23)C1 (centres unmarked) | 5.41%
COc1cc2cc(-c3ccc(OC)c(OC)c3C)nc(N)c2cc1OC | -4.84%
C=C(C)CSc1nc2c(c(=O)[nH]c(=O)n2C)n1CCC(C)C | 7.4%
O=C(Nc1nccs1)C(=O)c1c[nH]c2ccccc12 | 16.9%
COc1ccc(CC(=O)O/N=C(\N)c2ccncc2)cc1 | 8.17%
CCC(C)C(NC(=O)c1ccccc1)C(=O)Nc1ccc(S(=O)(=O)Nc2cc(C)nc(C)n2)cc1 (centres unmarked) | 10.4%
O=C(CC1C(=O)NCCN1Cc1ccccc1C(F)(F)F)NC1CCC1 (centres unmarked) | 16.7%
COc1cccc(NC(=O)c2ccccc2-c2nc(-c3ccc(F)cc3)no2)c1 | 10.3%
CCN(Cc1ccccc1)C(c1cccs1)c1nnnn1C1CCCCC1 (centres unmarked) | 16.9%
CN(C)Cc1c(O)ccc2oc(Cc3ccccc3)cc12 | -0.619%
Cc1ccc2[nH]c(=O)c(CC(=O)O)c(-c3ccccc3)c2c1 | 13.3%
COc1cccc(OCc2cc(C(=O)N3CCN(C4CCCC4)CC3)no2)c1 | 12.5%
CCn1cc(C(=O)N2CCCC2)c(=O)c2cc(S(=O)(=O)N3CC(C)CC(C)C3)ccc21 (centres unmarked) | 11.9%
O=C(NC(Cc1ccccc1)C(=O)O)/C(=C/c1ccc(F)cc1)NC(=O)c1ccccc1 (centres unmarked) | 14.9%
O=C(Cn1nc(-c2nn(CC(=O)c3ccccc3)c3[n+]2CCCCC3)[n+]2c1CCCCC2)c1ccccc1.[Br-] | 12.7%
C[C@H](C(=O)O)c1ccc(-c2ccccc2)c(F)c1 | 8.62%

SMILES | hERG current change (%, negative = inhibition) at 1uM
Cc1[nH]c2ccc(C(=O)NCCN3CCOCC3)cc2c1C | 15.7%
C[C@H](NC(=O)c1cc2cc(Cl)ccc2n1C)C(=O)N[C@@H](C(=O)O)c1ccccc1 | 15.3%
NC(=S)NC(=O)/C=C/c1ccccc1 | 10.1%
CCC(C)[C@H](NC(=O)Nc1ccc(C)cc1C)C(=O)O (some centres unmarked) | -8.67%
CCc1nc(SCC(=O)c2ccc(C)c(C)c2)n[nH]1 | 13.5%
Cc1csc(NC(=O)c2nc3nc(C)cc(C)n3n2)n1 | 5.55%
COc1ccc(S(=O)(=O)N2CCOCC2)cc1C(=O)Nc1cc(C)on1 | 11.8%
Cc1onc(-c2ccccc2)c1C(=O)N/N=C/C(Br)=C/c1ccccc1 | 5.2%
CCOC(=O)NCc1ccc(S(=O)(=O)Nc2ccc(C)cc2)cc1 | 9.48%
COc1ccc2oc(C(=O)NCC3CCCO3)c(C)c2c1 (centres unmarked) | 0.884%
COc1cc2nc(N3CCN(c4cc(C)ccc4C)CC3)nc(N)c2cc1OC.Cl | 10.7%
CCC(=O)NC(=S)Nc1ccc(NC(=O)c2cccnc2)cc1 | 7.36%
CCC1CCC(C(=O)NC(C(=O)Nc2ccc3c(c2)OCCO3)C(C)C)CC1 (centres unmarked) | 4.93%
COC(=O)c1ccc(NC(=O)C2CCCCC2C(=O)O)cc1 (centres unmarked) | 21.9%
COc1ccsc1C(=O)Nc1ccc(F)cc1F | 12.8%
O=C1CC(N2CCN(c3cccc(C(F)(F)F)c3)CC2)C(=O)N1c1ccccc1F (centres unmarked) | 7.3%
CCCCCCn1c(N(CC)CC)nc2c1c(=O)[nH]c(=O)n2C | -11.6%
CC(=O)c1sc(C(=O)O)c(-c2ccco2)c1-c1ccco1 | 11.9%
COCc1c(C(=O)NCCOc2ccc(Cl)cc2)oc2ccccc12 | 2.54%

SMILES | hERG current change (%, negative = inhibition) at 1uM
Cc1cccc(OCC(=O)OCC(=O)c2c(N)n(C)c(=O)n(C)c2=O)c1C | 8%
CCOC(=O)/C(C#N)=C/c1cc2cc(C)c(C)cc2nc1Cl | 5.2%
COc1cccc(CNC(=O)COc2ccc(C(=O)c3ccccc3)cc2)c1 | 6.67%
COc1ccc(-n2cnc3cc(NS(=O)(=O)c4ccccc4)ccc32)cc1 | 10.8%
N#Cc1ccc2c(c1)nnn2-c1ccccc1 | 6.38%
Cc1ccc(C(=O)c2c(NC(=O)CSc3nnc(N)s3)sc3c2CCCC3)cc1 | 12.6%
O=C(O)Cc1ccc2sc(-c3ccccc3)nc2c1 | 12.9%
O=C(NCc1cccs1)c1ccc(N2CCCC2=O)cc1 | 9.91%
CC(C)CCC(C(=O)[O-])C(C)CC(=O)NNC(=O)c1ccco1.[Na+] (centres unmarked) | 12.4%
O=C(COC(=O)C1(c2ccc(Cl)cc2)CCCC1)Nc1ncc(C(F)(F)F)cc1Cl | 5.56%
O=C(NN1CCOCC1)c1cccc(F)c1 | 12.7%
O=C(NCCCn1ccnc1)Nc1ccc(Cl)cc1Cl | 3.68%
COc1ccc(S(=O)(=O)Nc2ccccc2C(=O)NCc2cccnc2)cc1C | 5.06%
Cc1cccc(C)c1OCC(O)CN1CCC(CN2C(=O)c3cccc4cccc(c34)C2=O)CC1.Cl (centres unmarked) | -17.1%
COCCN(C(=O)CSc1nnc(-c2ccccc2F)n1C)c1c(N)n(Cc2ccccc2)c(=O)[nH]c1=O | -2.28%
COc1ccc(NC(=O)c2ccccc2Oc2ccccc2)cc1 | 14.2%
Cc1cc2nc3c(=O)[nH]c(=S)[nH]c3nc2cc1NC(=O)C(F)(F)F | 16.3%
O=C(/C=C/c1ccccc1F)N1CCN(c2ccccn2)CC1 | 9.99%
